Measured values taken from the GPR68 mutational scans of Howard et al. (2025).

B1: GPR68, Q15743 (parent)
chain: MGNITADNSSMSCTIDHTIHQTLAPVVYVTVLVVGFPANCLSLYFGYLQIKARNELGVYLCNLTVADLFYICSLPFWLQYVLQHDNWSHGDLSCQVCGILLYENIYISVGFLCCISVDRYLAVAHPFRFHQFRTLKAAVGVSVVIWAKELLTSIYFLMHEEVIEDENQHRVCFEHYPIQAWQRAINYYRFLVGFLFPICLLLASYQGILRAVRRSHGTQKSRKDQIQRLVLSTVVIFLACFLPYHVLLLVRSVWEASCDFAKGVFNAYHFSLLLTSFNCVADPVLYCFVSETTHRDLARLRGACLAFLTCSRTGRAREAYPLGAPEASGKSGAQGEEPELLTKLHPAFQTPNSPGSGGFPTGRLA

Assays:
[1] = variants of: B1; experiment: cAMP reporter score (Enrich2 score, wild type = 0); higher = more signal; HEK293T, FACS bins
[2] = variants of: B1; experiment: surface expression score (Enrich2 score, wild type = 0); higher = more signal; HEK293T, FACS bins

| Variant | cAMP reporter score ([1]; pH 5.5) | cAMP reporter score ([1]; pH 6) | cAMP reporter score ([1]; pH 6, modulator: ogerin) | cAMP reporter score ([1]; pH 6.5, modulator: ogerin) | surface expression score [2] |
| --- | --- | --- | --- | --- | --- |
| MGNITADNSSMSCTIDHTIHQTLAPVVYVTVLVVGFPANCLSLYFGYLQIKARNELGVYLCNLTVADLFYICSLPFWLQYVLQHDNWSHGDLSCQVCGILLYENIYISVGFLCCISVDRYLAVAHPFRFHQFRTLKAAVGVSVVIWAKELLTSIYFLMHEEVIEDENQHRVCFEHYPIQAWQRAINYYRFLVGFLFPICLLLASYQGILRAVRRSHGTQKSRKDQIQRLVLSTVVIFLACFLPYHVLLLVRSVWEASCDFAKGVFNAYHFSLLLTSFNCVADPVLYCFVSETTHRDLARLRGACLAFLTCSRTGRAREAMPLGAPEASGKSGAQGEEPELLTKLHPAFQTPNSPGSGGFPTGRLA [Y320M] | 1 | 0.204 | 0.892 | 2.5 | 1.04 |
| MGNITADNSSMSCTIDHTIHQTLAPVVYVTVLVVGFPANCLSLYFGYLQIKARNELGVYLCNLTVADLFYICSLPFWLQYVLQHDNWSHGDLSCQVCGILLYENIYISVGFLCCISVDRYLAVAHPFRFHQFRTLKAAVGVSVVIWAKELLTSIYFLMHEEVIEDENQHRVCFEHYPIQAWQRAINYYRFLVGFLFPICLLLASYQGILRAVRRSHGTQKSRKDQIQRLVLSTVVIFLACFLPYHVLLLVRSVWEASCDFAKGVFNAYHFSLLLTSFNCVADPVLYCFVSETTHRDLARLRGACLAFLTCSRTGRAREANPLGAPEASGKSGAQGEEPELLTKLHPAFQTPNSPGSGGFPTGRLA [Y320N] | 0.825 |  | 2.35 | 0.964 | 1.13 |
| MGNITADNSSMSCTIDHTIHQTLAPVVYVTVLVVGFPANCLSLYFGYLQIKARNELGVYLCNLTVADLFYICSLPFWLQYVLQHDNWSHGDLSCQVCGILLYENIYISVGFLCCISVDRYLAVAHPFRFHQFRTLKAAVGVSVVIWAKELLTSIYFLMHEEVIEDENQHRVCFEHYPIQAWQRAINYYRFLVGFLFPICLLLASYQGILRAVRRSHGTQKSRKDQIQRLVLSTVVIFLACFLPYHVLLLVRSVWEASCDFAKGVFNAYHFSLLLTSFNCVADPVLYCFVSETTHRDLARLRGACLAFLTCSRTGRAREAPPLGAPEASGKSGAQGEEPELLTKLHPAFQTPNSPGSGGFPTGRLA [Y320P] | 0.169 | 0.095 | -0.039 | -0.096 | 1.41 |
| MGNITADNSSMSCTIDHTIHQTLAPVVYVTVLVVGFPANCLSLYFGYLQIKARNELGVYLCNLTVADLFYICSLPFWLQYVLQHDNWSHGDLSCQVCGILLYENIYISVGFLCCISVDRYLAVAHPFRFHQFRTLKAAVGVSVVIWAKELLTSIYFLMHEEVIEDENQHRVCFEHYPIQAWQRAINYYRFLVGFLFPICLLLASYQGILRAVRRSHGTQKSRKDQIQRLVLSTVVIFLACFLPYHVLLLVRSVWEASCDFAKGVFNAYHFSLLLTSFNCVADPVLYCFVSETTHRDLARLRGACLAFLTCSRTGRAREAQPLGAPEASGKSGAQGEEPELLTKLHPAFQTPNSPGSGGFPTGRLA [Y320Q] | 0.515 |  | 1.11 | 0.398 | 1.87 |

Scores whose standard error is large were omitted. The source holds two more conditions with little spread; they are left out. Read del as a deletion of the residues named and ins as an insertion between two positions. For part of these data: How much ogerin was present is not stated here.
